Assay results: PubChem BioAssay AID504333 (National Center for Advancing Translational Sciences (NCATS), 2011)
Out of some 360,000 compounds screened, about 16,000 (4.4%) were called active. Inconclusive results, whose numbers are uncertain, are shown with a selection of clear calls. The call rests on the fitted dose curve; in most records, active means well fitted inhibition curve with a large enough effect; inconclusive means small, poorly fitted or top-dose-only effect; inactive means no such curve, though single readings can be large or run the other way. A potency beside an inconclusive call is a rough fit, not a confirmed value.

target: Bromodomain adjacent to zinc finger domain protein 2B (Homo sapiens) (UniProt Q9UIF8); experiment: qHTS Assay for Inhibitors of BAZ2B; details: AlphaScreen BAZ2B-H3K14Ac peptide displacement; series mostly up to 114 µM; further: nearly all actives have a fitted effect of over 60% in size
Summary of the method: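 In this displacement format the biotinylated H3(5-23) peptide acetylated at Lys14 serves as ligand at 50 nM, with BAZ2B at 50 nM in PBS pH 7.4 containing 0.01% Tween-20. Donor and acceptor beads are 10 ug/mL final.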
Potency means the concentration at half of the fitted maximal effect; tags describe the fitted curve by direction and shape.

UniProt Q9UIF8, sequence (Q9UIF8 whole entry, looked up, the tested form may be a part): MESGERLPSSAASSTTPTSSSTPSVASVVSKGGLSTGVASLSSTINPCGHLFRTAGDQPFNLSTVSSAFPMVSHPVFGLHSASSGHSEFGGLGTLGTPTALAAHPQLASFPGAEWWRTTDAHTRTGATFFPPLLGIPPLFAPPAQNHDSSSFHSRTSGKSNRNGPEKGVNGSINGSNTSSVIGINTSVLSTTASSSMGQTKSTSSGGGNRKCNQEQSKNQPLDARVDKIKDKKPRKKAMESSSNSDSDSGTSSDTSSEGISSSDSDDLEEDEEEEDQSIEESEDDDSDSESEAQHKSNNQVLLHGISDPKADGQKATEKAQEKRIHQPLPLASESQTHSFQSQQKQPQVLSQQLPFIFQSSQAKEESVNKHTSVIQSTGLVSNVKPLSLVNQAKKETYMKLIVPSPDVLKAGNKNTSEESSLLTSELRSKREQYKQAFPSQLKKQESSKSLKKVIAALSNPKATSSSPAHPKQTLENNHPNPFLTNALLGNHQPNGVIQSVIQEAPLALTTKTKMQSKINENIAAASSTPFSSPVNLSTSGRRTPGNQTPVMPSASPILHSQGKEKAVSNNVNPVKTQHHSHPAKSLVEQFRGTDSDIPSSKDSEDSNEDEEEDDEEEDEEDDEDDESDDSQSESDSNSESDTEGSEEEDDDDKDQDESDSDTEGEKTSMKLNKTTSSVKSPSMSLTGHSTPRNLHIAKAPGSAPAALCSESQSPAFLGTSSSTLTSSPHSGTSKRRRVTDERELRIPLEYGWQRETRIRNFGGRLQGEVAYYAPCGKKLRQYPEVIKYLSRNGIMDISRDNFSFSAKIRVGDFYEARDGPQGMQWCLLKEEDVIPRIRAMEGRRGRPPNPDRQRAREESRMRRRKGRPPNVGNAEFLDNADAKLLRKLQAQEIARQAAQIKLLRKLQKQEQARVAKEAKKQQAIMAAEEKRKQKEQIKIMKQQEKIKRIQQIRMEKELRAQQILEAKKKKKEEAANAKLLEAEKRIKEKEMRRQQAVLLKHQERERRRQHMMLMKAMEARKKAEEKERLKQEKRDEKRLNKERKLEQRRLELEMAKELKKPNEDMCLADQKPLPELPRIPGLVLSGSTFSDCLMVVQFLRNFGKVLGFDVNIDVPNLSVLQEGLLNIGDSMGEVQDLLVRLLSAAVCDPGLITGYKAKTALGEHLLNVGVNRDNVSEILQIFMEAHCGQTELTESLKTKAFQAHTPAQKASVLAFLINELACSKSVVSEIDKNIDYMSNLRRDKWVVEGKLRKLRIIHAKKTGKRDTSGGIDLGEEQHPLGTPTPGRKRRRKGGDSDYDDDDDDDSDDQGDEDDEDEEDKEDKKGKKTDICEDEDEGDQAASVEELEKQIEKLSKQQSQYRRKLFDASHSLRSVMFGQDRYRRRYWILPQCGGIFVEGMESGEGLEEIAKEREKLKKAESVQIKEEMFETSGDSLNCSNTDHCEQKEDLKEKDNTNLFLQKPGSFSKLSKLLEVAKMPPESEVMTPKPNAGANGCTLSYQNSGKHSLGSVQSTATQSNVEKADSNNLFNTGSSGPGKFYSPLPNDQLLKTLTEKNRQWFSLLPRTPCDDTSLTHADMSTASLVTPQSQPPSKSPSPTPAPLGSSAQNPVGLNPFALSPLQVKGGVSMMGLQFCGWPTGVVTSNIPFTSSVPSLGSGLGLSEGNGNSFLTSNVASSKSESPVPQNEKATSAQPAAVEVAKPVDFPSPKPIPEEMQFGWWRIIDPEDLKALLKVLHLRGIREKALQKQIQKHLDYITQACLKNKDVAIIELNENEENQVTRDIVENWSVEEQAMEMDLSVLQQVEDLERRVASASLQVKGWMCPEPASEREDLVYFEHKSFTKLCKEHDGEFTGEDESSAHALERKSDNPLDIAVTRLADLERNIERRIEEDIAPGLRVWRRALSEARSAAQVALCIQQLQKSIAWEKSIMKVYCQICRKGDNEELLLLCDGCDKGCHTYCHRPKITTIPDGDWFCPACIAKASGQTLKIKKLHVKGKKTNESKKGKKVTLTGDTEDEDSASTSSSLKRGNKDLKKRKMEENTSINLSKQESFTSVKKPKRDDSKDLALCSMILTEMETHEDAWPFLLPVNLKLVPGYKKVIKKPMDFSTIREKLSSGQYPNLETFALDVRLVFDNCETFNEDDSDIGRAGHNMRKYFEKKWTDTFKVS

SMILES	Potency
Nc1ccc(-c2c3ccc(=O)cc-3oc3cc(O)ccc23)cc1C(=O)O	inconclusive: 70.8 µM [inhibitor, partial curve]
CN(CC(=O)Nc1ccccc1Cl)C(=O)COC(=O)C1=COCCO1	inactive
CC1CC(N(C(=O)c2ccco2)c2ccccc2)c2ccccc2N1C(=O)c1ccco1 (centres undefined)	inactive
O=C(NCc1ccccc1Cl)C1=CC=CN2CCS(=O)(=O)N=C12	inconclusive: 89.1 µM [inhibitor, single point]
CCCn1nnnc1NC(=O)COc1ccc(Br)cc1	active: 79.4 µM
COc1[nH]c(/N=C/c2ccccc2)c(C#N)c1C#N	inconclusive: 89.1 µM [inhibitor, single point]
Cc1cccc(N2CCN(C(=S)c3ccc(-c4ccccc4[N+](=O)[O-])o3)CC2)c1	active: 10 µM
Cc1noc(C)c1C(=O)N1CCCC(Nc2ccc(C(C)C)cc2)C1 (centres undefined)	inconclusive: 79.4 µM [inhibitor, single point]
CCOC(=O)C(C)On1c(-c2ccc(Cl)cc2)nc2ccc([N+](=O)[O-])cc21 (centres undefined)	inconclusive: 79.4 µM [inhibitor, single point]
CN(/N=C/Cc1nnnn1-c1ccc(Cl)cc1)c1ccccc1	inconclusive: 44.7 µM [inhibitor, partial curve]
O=C(c1ccccc1)C1C(=O)c2ccccc2C1=O	inactive
Cc1ccccc1NCCNc1ccccc1C	inconclusive: 44.7 µM [inhibitor, partial curve]
C/C(=N\NC(=O)c1cc(O)ccc1O)c1cccc(NC(=O)c2cccc(Cl)c2)c1	inconclusive: 44.7 µM [inhibitor, partial curve]
CC1SC(=S)N(c2ccc(N(C)C)cc2)C1=O (centres undefined)	inconclusive: 31.6 µM [inhibitor, partial curve]
COc1cc(/C=C2/SC(=S)N(Cc3ccccc3)C2=O)cc(Cl)c1O	active: 12.6 µM
CC(=O)N1N=C(c2cccnc2)OC1c1ccc(C(C)C)cc1 (centres undefined)	inconclusive: 89.1 µM [inhibitor, single point]
COc1ccc(-c2cc(C(=O)N3CCN(c4ccccc4F)CC3)c3ccccc3n2)c(OC)c1	inactive
CCOC(=O)c1c(NC(=O)C(C)Sc2cn(C)c3ccccc23)sc2c1CCC2 (centres undefined)	inconclusive: 7.94 µM [inhibitor, partial curve]
C/C(=C(/CCO)SSCC1CCCO1)N(C=O)Cc1cnc(C)nc1N (centres undefined)	inactive
COc1ccc(C(=O)COC(=O)/C=C/c2ccco2)cc1F	inconclusive: 79.4 µM [inhibitor, single point]
CC(C)(C)c1ccc(C(=O)N2CCC(=O)N(C(CO)Cc3ccccc3)CC2)cc1 (centres undefined)	inconclusive: 100 µM [inhibitor, partial curve]
Cc1ccc(C(=O)NN2C(=O)c3ccc(S(=O)(=O)c4ccc(C(=O)O)cc4)cc3C2=O)cc1	inactive
O=C(c1cc2cc([N+](=O)[O-])ccc2oc1=O)N1CCOCC1	inconclusive: 79.4 µM [inhibitor, single point]
Fc1ccc(NCc2cccnc2)cc1F	inconclusive: 89.1 µM [inhibitor, single point]
O=C(c1ccc(S(=O)(=O)Nc2cccc(C(F)(F)F)c2)cc1)N1CCC1	inactive

SMILES	Potency
Cc1cc(NC(=S)N(CCN2CCCCC2)Cc2ccco2)ccc1Cl	inconclusive: 89.1 µM [inhibitor, single point]
Nc1ccc(O)cc1C(=O)OCC(=O)c1ccc(C2CCCCC2)cc1	active: 39.8 µM
Cc1ccc(NC(=O)CSc2nc3nc(C)c(Br)cc3[nH]2)cc1F	inactive
COc1ccc(Cl)cc1NCCC(O)c1ccc(F)cc1 (centres undefined)	inconclusive: 50.1 µM [inhibitor, partial curve]
CN1C2CCC1/C(=C\c1ccc(F)cc1)C(=O)/C2=C/c1ccc(F)cc1	inactive
Cc1[nH]n(C2=NCCS2)c(=O)c1N=Nc1cccc(C(F)(F)F)c1	inconclusive: 79.4 µM [inhibitor, single point]
CCOc1cc(NC2CS(=O)(=O)CC2O)c(OCC)cc1NC(=O)c1ccccc1 (centres undefined)	inconclusive: 50.1 µM [inhibitor, partial curve]
COc1cc(/C=C2/C(=N)N3C(=NC2=O)SN=C3S(C)(=O)=O)ccc1OS(=O)(=O)c1ccccc1	active: 50.1 µM
C=CCc1ccccc1OCCNCc1ccccc1	inconclusive: 63.1 µM [inhibitor, partial curve, poor fit]
C/C(=C\C(=O)c1ccccc1)Nc1ccc(O)cc1	inconclusive: 89.1 µM [inhibitor, single point]
COc1ccc(N2CCN(CCCNC(=O)c3ccc4nc(N5CCCCC5)sc4c3)CC2)cc1	active: 25.1 µM
CCOC(=O)c1c(S(=O)(=O)NCCCc2ccco2)c(C)n(C)c1C	active: 56.2 µM
CC1CCN(CCCNC(=O)c2ccc3c(Cl)c4c(nc3c2)CCCC4)CC1	inconclusive: 79.4 µM [inhibitor, single point]
O=C(Nc1nnc(Cc2ccccc2)s1)C1CCC1	inactive
Cc1ccc(C2=Nc3ccccc3NC(C)(c3ccc(C)o3)C2)o1 (centres undefined)	inconclusive: 39.8 µM [inhibitor, partial curve]
CCOc1ccccc1Nc1nc(-c2cccnc2)cs1	inconclusive: 50.1 µM [inhibitor, partial curve]
CN(Cc1cn(C)nc1-c1ccccc1F)Cc1nccn1C	inconclusive: 79.4 µM [inhibitor, single point]
Cn1cnnc1SCC(=O)Nc1nc(-c2ccccc2)cs1	inconclusive: 89.1 µM [inhibitor, single point]
CC(C)CC(=O)NC(NC(=S)Nc1cccc2cccnc12)C(Cl)(Cl)Cl (centres undefined)	inactive
O=C(O)CCC(=O)NNC(=O)c1cccc(Cl)c1	inactive
Cc1oc(-c2cccc(Cl)c2)nc1CN1CCCC(C(=O)NCc2ccc(Cl)cc2)C1 (centres undefined)	inconclusive: 25.1 µM [inhibitor, full curve]
O=C(NCCc1ccccc1)C1CCN(S(=O)(=O)N2CCCCCC2)CC1	inactive
CCc1cc(C(=O)N2CCCC(C(=O)c3ccc(Oc4ccccc4)cc3)C2)n(C)n1 (centres undefined)	inactive
CC1(c2ccccc2)CC(C)(C)N(C(=O)c2cc([N+](=O)[O-])cc([N+](=O)[O-])c2)c2ccccc21 (centres undefined)	inconclusive: 3.55 µM [inhibitor, full curve]
Cc1ccc(CN2CCN(C3CCOCC3)CC2CCO)cc1 (centres undefined)	inactive

SMILES	Potency
COc1ccc(OC)c(C2C3=C(N=c4s/c(=C\c5cccc(O)c5)c(=O)n42)c2ccccc2CC3)c1 (centres undefined)	inconclusive: 79.4 µM [inhibitor, single point]
O=[N+]([O-])c1ccc(N2CCCC2)cc1NC1CC1	inconclusive: 22.4 µM [inhibitor, full curve]
Cc1cccc(CNC(=O)CN2C(=O)CCCc3ccccc32)c1	inactive
CCCN1C(=O)/C(=C/c2c(N3CCNC(=O)C3CC(=O)OC)nc3c(C)cccn3c2=O)SC1=S (centres undefined)	inconclusive: 31.6 µM [inhibitor, full curve]
CCc1ccc(C2CC(c3cccc(Cl)c3)n3nc(N)nc3N2)cc1 (centres undefined)	inactive
O=C(NNC(=O)c1cc(-c2cccnc2)nc2ccccc12)Nc1ccc(Cl)cc1	inconclusive: 89.1 µM [inhibitor, single point]
COC(=O)c1sccc1-n1cccc1C(=O)C(=O)Nc1ccc(F)cc1	inconclusive: 20 µM [inhibitor, partial curve, poor fit]
CC(=O)NN1C(=O)/C(=C\c2ccc(Cl)cc2)SC1=S	inactive
CC1CCCCN1S(=O)(=O)c1cc2c3c(c1)CC(=O)N3CCC2 (centres undefined)	inactive
Cc1ccc(NC(=S)N/N=C/c2ccc([N+](=O)[O-])s2)cc1	active: 14.1 µM
Cn1c(C(=O)N2CCc3ccccc3C2)cc2oc3ccccc3c21	inconclusive: 50.1 µM [inhibitor, partial curve]
Cc1ccc(Nc2nc(Nc3ccc(C)c(C)c3)nc(N3CCOCC3)n2)cc1C	inactive
O=C1C2C3c4ccccc4C(c4ccccc43)C2C(=O)N1Cc1cccnc1 (centres undefined)	inactive
C#CCOCCOCCOCCNc1nc(N2CCN(C(=O)C([C@@H](C)CC)n3cc(C(N)Cc4ccc(O)cc4)nn3)CC2)nc(N2CCN(C(=O)[C@H](CCC(=O)O)n3cc(C(N)CO)nn3)CC2)n1 (some centres undefined)	active: 50.1 µM
COc1ccc(N2CCN(CCCNC(=O)c3cc(Nc4ccccc4OC)nc4ccccc34)CC2)cc1	active: 10 µM
COc1ccc(Cc2nc3ccc(S(=O)(=O)N4CCOCC4)cc3[nH]2)cc1OC	inconclusive: 89.1 µM [inhibitor, single point]
O=C(NC1CCCC1)c1ccc2c(=O)n(Cc3ccccc3)c(SCc3ccccc3)nc2c1	inactive
CC(C)c1ccc(NC(=S)NNc2ccc(Cl)c(C(=O)O)c2)cc1	inconclusive: 44.7 µM [inhibitor, partial curve]
Cc1ccc(Nc2nc(N3CCOCC3)nc(N3CCOCC3)n2)cc1	inactive
NC(=O)CC(NC(=O)c1ccccc1)c1ccc(NCCc2ccc(Cl)cc2)c([N+](=O)[O-])c1 (centres undefined)	inactive
C=CCn1c(N)c(C(=O)OCC)sc1=S	inconclusive: 89.1 µM [inhibitor, single point]
Cn1c(CCCNC(=O)c2cccs2)nc2ccccc21	inconclusive: 89.1 µM [inhibitor, single point]
CC(C)NCC(=O)Nc1c2c(nc3ccccc13)CCC2	active: 50.1 µM
CCn1c(CN2CCOCC2)nc2cc(NC(=O)c3ccc([N+](=O)[O-])cc3)ccc21	inactive
